# According to publication PMC5303829, “A CAF40-binding motif facilitates recruitment of the CCR4-NOT complex to mRNAs targeted by Drosophila Roquin” (Nature Communications, 2017):
# Sequences of proteins named here, by UniProt entry; tags and fusion partners are left off.
# UniProt Q9NZN8: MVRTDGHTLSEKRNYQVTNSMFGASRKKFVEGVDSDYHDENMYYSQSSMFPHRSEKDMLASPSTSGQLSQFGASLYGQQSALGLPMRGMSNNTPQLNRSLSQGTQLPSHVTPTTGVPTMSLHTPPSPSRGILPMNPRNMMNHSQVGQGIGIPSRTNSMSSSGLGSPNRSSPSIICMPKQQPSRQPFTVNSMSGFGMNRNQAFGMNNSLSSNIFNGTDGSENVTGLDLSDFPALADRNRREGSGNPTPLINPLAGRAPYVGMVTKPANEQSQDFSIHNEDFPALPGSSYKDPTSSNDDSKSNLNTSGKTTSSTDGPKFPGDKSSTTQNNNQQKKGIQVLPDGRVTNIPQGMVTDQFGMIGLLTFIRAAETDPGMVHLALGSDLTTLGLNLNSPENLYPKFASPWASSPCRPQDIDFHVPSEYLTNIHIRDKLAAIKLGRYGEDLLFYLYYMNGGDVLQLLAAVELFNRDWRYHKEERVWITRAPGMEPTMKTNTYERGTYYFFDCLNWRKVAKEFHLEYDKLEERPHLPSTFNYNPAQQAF
# UniProt O75175: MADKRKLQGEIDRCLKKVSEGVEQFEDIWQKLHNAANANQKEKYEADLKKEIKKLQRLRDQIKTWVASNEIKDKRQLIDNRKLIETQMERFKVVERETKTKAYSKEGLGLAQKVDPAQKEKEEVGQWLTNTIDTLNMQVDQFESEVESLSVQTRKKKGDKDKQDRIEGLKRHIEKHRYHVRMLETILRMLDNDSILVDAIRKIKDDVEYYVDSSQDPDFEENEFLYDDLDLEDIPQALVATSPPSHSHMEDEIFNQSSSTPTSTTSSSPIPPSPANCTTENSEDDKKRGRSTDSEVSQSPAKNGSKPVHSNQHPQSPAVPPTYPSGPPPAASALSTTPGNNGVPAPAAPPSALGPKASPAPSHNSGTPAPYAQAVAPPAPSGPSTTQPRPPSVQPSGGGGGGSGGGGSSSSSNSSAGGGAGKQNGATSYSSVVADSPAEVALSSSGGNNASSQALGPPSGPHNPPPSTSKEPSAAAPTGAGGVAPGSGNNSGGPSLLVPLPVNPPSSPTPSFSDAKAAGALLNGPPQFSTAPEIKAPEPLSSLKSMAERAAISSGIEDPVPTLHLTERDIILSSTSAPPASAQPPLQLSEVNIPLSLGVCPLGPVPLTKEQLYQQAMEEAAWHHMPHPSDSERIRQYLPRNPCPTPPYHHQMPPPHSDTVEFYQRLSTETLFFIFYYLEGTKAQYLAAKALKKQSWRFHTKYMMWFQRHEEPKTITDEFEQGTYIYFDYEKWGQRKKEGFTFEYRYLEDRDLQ
# UniProt A5YKK6: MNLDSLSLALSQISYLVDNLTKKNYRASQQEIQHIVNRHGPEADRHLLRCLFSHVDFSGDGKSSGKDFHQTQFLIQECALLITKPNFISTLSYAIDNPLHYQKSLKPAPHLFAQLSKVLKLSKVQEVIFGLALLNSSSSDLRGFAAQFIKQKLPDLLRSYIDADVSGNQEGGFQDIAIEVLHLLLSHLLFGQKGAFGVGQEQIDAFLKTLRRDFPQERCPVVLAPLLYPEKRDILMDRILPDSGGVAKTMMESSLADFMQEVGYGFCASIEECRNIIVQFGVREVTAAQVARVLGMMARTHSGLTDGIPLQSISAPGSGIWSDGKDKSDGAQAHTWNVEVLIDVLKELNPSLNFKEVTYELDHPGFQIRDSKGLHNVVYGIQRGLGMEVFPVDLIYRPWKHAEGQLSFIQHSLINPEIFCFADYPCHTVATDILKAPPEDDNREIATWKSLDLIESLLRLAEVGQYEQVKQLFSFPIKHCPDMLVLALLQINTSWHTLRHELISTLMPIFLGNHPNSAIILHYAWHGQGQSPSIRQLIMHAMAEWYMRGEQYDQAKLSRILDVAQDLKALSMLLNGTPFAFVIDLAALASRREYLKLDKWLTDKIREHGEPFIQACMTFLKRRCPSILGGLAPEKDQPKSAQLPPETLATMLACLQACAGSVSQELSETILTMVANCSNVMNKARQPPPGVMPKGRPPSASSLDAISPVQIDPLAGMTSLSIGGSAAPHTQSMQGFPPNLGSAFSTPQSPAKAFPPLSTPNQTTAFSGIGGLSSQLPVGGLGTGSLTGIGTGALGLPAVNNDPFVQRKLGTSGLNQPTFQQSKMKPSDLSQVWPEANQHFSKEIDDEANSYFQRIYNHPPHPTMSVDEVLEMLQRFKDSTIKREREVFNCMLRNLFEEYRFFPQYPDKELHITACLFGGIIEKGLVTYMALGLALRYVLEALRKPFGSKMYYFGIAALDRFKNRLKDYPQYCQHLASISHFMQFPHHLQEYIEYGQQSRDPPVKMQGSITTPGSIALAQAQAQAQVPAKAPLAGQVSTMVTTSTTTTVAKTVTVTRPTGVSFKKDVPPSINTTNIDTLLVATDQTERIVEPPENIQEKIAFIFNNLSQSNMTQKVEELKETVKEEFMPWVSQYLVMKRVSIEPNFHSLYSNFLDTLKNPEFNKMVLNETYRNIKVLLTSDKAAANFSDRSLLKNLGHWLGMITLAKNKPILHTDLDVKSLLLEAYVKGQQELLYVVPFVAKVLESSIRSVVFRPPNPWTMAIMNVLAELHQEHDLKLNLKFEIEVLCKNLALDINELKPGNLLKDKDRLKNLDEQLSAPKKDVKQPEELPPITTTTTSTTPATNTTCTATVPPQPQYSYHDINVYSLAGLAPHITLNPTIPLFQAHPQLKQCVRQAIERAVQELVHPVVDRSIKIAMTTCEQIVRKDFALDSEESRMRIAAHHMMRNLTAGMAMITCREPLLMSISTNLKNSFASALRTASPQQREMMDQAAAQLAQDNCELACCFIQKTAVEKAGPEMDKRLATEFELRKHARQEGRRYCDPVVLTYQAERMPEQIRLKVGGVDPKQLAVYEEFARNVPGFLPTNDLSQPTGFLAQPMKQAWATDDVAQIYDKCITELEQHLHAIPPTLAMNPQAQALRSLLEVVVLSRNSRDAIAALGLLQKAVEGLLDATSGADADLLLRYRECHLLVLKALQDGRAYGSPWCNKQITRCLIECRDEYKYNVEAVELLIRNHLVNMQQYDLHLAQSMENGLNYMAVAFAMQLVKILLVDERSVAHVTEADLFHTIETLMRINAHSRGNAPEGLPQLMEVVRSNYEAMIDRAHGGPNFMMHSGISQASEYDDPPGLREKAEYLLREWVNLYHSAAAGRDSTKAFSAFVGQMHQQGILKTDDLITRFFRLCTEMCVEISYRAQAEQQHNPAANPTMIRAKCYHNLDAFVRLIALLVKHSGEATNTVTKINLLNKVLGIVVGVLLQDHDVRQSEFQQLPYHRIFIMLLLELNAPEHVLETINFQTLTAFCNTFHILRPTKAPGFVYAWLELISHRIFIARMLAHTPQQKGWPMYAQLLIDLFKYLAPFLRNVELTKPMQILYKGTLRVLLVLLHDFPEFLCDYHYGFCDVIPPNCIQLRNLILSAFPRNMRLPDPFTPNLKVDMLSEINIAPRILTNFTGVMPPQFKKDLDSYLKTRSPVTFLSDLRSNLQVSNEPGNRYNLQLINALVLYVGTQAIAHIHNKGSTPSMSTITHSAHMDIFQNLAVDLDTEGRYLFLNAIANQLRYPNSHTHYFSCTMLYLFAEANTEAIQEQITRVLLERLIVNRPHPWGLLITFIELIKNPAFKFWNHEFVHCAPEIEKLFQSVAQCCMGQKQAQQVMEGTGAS
# Results are given in words; binding and its absence hold for the method and conditions named. Binding seen in cells or lysates may run through a third protein. Some binding calls cover weakened binding; strength is not graded here. Where a sequence is shown, tags or fusion partners need not be part of it.
# Columns and labels:
# [1] = target: T1, V5-SBP-tagged Hs Roquin1 (full-length) (human) (UniProt Q5TC82); assay: pull-down; SBP pulldown from lysates of HEK293T cells expressing V5-SBP-tagged Roquin proteins (bait); endogenous NOT1, NOT2 and NOT3 in the bound fractions detected by western blotting
# T1 sequence: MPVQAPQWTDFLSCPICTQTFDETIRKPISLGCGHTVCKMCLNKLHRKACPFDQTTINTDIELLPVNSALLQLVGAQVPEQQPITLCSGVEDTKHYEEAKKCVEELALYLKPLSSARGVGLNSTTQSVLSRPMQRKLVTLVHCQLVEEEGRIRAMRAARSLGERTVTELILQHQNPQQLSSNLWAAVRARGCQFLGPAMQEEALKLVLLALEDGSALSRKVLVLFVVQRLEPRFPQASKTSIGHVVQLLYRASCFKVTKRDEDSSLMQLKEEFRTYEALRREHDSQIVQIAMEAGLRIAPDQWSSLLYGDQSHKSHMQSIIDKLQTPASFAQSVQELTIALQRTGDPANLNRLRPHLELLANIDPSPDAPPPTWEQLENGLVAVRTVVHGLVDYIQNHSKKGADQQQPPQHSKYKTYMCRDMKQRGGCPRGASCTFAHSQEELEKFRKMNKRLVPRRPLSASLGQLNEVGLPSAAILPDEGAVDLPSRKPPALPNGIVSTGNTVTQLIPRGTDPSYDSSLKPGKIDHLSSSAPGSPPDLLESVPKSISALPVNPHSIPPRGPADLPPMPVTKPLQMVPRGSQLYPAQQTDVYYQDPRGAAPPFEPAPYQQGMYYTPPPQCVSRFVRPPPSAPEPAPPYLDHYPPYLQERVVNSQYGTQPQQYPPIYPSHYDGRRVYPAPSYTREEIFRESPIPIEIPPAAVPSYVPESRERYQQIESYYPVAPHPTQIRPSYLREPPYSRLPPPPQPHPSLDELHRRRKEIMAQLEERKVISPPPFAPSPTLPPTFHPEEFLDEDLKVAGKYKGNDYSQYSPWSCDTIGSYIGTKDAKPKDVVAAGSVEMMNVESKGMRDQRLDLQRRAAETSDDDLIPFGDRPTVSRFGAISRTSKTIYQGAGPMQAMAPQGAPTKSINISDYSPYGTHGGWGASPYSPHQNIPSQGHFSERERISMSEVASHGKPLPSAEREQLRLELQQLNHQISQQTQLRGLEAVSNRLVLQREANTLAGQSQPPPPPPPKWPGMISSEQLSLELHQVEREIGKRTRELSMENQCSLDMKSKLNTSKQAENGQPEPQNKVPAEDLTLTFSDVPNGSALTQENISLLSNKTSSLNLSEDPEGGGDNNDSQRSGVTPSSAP
# [2] = target: T2, V5-SBP-tagged Dm Roquin (full-length) (Drosophila melanogaster) (UniProt Q9VV48); assay: as above
# T2 sequence: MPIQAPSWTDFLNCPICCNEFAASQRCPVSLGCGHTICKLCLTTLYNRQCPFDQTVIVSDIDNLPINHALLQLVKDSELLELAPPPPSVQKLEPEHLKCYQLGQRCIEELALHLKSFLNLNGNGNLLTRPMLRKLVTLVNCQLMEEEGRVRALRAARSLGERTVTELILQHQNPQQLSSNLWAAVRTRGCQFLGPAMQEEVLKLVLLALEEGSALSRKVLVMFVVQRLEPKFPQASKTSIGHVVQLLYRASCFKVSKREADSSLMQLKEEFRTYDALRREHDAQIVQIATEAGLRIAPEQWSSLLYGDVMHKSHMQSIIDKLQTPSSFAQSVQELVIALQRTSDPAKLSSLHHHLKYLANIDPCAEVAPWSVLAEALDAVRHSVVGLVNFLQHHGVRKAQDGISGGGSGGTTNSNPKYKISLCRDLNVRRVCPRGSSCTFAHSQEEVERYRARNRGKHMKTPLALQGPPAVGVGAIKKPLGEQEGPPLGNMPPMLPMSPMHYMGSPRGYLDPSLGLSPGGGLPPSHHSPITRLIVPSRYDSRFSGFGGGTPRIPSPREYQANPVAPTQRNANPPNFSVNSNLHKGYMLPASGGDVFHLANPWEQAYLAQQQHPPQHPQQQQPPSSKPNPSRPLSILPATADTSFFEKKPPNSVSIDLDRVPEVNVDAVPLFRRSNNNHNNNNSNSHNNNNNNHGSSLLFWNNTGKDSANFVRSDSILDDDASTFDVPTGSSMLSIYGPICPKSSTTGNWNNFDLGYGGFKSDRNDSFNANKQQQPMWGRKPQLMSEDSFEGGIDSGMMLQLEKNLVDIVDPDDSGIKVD
binding [1],binding [2],Substance
binds,binds,endogenous NOT2 (HEK293T) (from UniProt Q9NZN8 1-540)
binds,binds,endogenous NOT3 (HEK293T) (from UniProt O75175 1-753)
binds,binds,endogenous NOT1 (HEK293T) (from UniProt A5YKK6 1-2376)
